Reference: article PMC9911399, “Two distinct binding modes provide the RNA-binding protein RbFox with extraordinary sequence specificity”
Positions count from the first letter of the chain named. The list shows a part of the results.

T1: RBFOX1 RRM (Homo sapiens, UniProt Q9NWB1 109-208)
T1 sequence: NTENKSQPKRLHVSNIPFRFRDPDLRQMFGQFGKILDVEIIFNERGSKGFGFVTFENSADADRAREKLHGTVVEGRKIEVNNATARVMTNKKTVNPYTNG

B1: UGUAGUC (DNA:RNA)
RNA: GGGAGACCGGAAUUCAGAUUGUCCUGUAGUCUUAAAUCCCGUCGUAGCCACCA
DNA 1: CAATCTGAATTCCGGTCTCCC
DNA 2: TGGTGGCTACGACGGGATT
B2: AGUGCGG (DNA:RNA)
RNA: B1 RNA with U25A, A28G, G29C, U30G, C31G
DNA 1: CAATCTGAATTCCGGTCTCCC
DNA 2: TGGTGGCTACGACGGGATT
B3: CCUCUAU (DNA:RNA)
RNA: B1 RNA with U25C, G26C, A28C, G29U, U30A, C31U
DNA 1: CAATCTGAATTCCGGTCTCCC
DNA 2: TGGTGGCTACGACGGGATT
B4: UUAAUAG (DNA:RNA)
RNA: B1 RNA with G26U, U27A, G29U, U30A, C31G
DNA 1: CAATCTGAATTCCGGTCTCCC
DNA 2: TGGTGGCTACGACGGGATT
B5: CACGACC (DNA:RNA)
RNA: B1 RNA with U25C, G26A, U27C, A28G, G29A, U30C
DNA 1: CAATCTGAATTCCGGTCTCCC
DNA 2: TGGTGGCTACGACGGGATT
B6: ACCAAUG (DNA:RNA)
RNA: B1 RNA with U25A, G26C, U27C, G29A, C31G
DNA 1: CAATCTGAATTCCGGTCTCCC
DNA 2: TGGTGGCTACGACGGGATT
B7: CGUACCU (DNA:RNA)
RNA: B1 RNA with U25C, G29C, U30C, C31U
DNA 1: CAATCTGAATTCCGGTCTCCC
DNA 2: TGGTGGCTACGACGGGATT
B8: CCGGCGU (DNA:RNA)
RNA: GGGAGACCGGAAUUCAGAUUGUCCCCGGCGUUUAAAUCCCGUCGUAGCCACCA
DNA 1: CAATCTGAATTCCGGTCTCCC
DNA 2: TGGTGGCTACGACGGGATT
B9: ACCUUAU (DNA:RNA)
RNA: B8 RNA with C25A, G27C, G28U, C29U, G30A
DNA 1: CAATCTGAATTCCGGTCTCCC
DNA 2: TGGTGGCTACGACGGGATT

Each binder was assayed against T1, RBFOX1 RRM (assay: EMSA; HiTS-Eq, 1 nM pool, 10 min; buffer printed only for the single-RNA assays: 10 mM Tris pH 7.5, 150 mM NaCl, 3.4 mM EDTA, 0.001% NP-40, 30 C). Settings: tags: His6 N-terminal (pET28a); label: 5' 32P.
Method in brief: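 Purified wild-type or mutant RbFox RRM at increasing concentrations was equilibrated with 1 nM of 5′-radiolabelled RNA carrying 7 randomized nucleotides for 10 min in 50 µL. Unbound RNA was separated by 8% native PAGE and sequenced. Relative association constants came from read-count changes of each RNA species compared with the control reaction, normalised to the cognate motif.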
B1 was tested, and the binding signal was 0.0214 KA relative to UGCAUGU. For B2, the binding signal was 0.0131 KA relative to UGCAUGU. In the case of B3, the binding signal is reported as 0.00465 KA relative to UGCAUGU. With B4 the binding signal was 0.0116 KA relative to UGCAUGU. For B5, the binding signal was 0.00182 KA relative to UGCAUGU. For B6, the binding signal was 0.00241 KA relative to UGCAUGU. For B7, the binding signal was 0.00481 KA relative to UGCAUGU. B8 was tested, and the binding signal was 0.0138 KA relative to UGCAUGU. In the case of B9, the binding signal is reported as 0.00285 KA relative to UGCAUGU.
